The full ranking holds about 110,000 compounds; the median of “z-score” is about -0.1, and the highest 2% start at about 2. The list shows a part of the results. Active and inactive are the calls of the source.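 Rule for the calls: active = z-score in the third read window above 3 or below -3; inactive = the rest.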
What follows are compounds tested against Metabotropic glutamate receptor 8 (Rattus norvegicus) (UniProt P70579) (assay: rat mGluR8 modulators via GIRK flux, primary screen, cell-based, thallium flux, HTS (AID 488969)). Settings: HEK293 rat mGluR8, GIRK (G protein-gated inwardly rectifying potassium channel) thallium flux, FluoZin2; at 10 µM; stronger effect = higher value; submaximal glutamate (EC20) added with thallium.
UniProt P70579, sequence (P70579 whole entry, looked up): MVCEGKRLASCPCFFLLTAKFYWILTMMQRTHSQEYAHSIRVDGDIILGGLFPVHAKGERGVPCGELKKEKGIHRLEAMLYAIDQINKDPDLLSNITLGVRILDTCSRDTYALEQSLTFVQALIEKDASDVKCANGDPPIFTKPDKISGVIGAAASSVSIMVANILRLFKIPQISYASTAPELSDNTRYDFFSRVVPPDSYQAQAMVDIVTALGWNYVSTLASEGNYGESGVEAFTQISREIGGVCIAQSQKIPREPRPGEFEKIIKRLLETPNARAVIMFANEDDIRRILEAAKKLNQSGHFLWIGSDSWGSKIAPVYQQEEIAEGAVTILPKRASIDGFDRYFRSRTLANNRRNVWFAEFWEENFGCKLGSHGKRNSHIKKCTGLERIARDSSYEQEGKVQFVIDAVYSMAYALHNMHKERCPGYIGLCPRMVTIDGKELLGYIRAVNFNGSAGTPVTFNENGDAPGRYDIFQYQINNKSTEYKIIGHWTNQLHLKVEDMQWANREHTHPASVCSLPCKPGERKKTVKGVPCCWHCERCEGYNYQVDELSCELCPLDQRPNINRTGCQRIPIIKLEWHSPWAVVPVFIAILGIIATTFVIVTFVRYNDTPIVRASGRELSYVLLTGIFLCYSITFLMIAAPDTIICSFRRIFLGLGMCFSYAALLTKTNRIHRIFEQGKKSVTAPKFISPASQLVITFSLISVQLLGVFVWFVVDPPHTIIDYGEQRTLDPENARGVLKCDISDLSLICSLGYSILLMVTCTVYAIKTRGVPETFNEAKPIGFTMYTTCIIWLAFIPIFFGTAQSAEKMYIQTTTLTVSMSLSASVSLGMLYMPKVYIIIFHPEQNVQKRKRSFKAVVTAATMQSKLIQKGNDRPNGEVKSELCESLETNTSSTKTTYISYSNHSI
`COc1ccc(OC)c(C2Nc3nc4ccccc4n3C(C)=C2C(=O)Nc2ccc(C)cc2C)c1` (stereo not drawn) was tested, and the z-score was -0.172.
`O=C(CCN1C(=O)COc2ccccc21)NCCCN1CCc2ccccc2C1` was tested, and the z-score was active: 7.6.
Work on `Cc1ccc(OCCCC(=O)Nc2nccs2)cc1` yielded a z-score of 1.5.
`CC(Sc1nnc(NC2CCCCC2)s1)C(=O)Nc1ccc2c(c1)C(=O)c1ccccc1C2=O` (stereo not drawn) gave a z-score of 0.95.
In the case of `Cc1ccc2nc(N3CCN(Cc4nnnn4C4CCCC4)CC3)c(C#N)cc2c1`, the z-score is reported as -0.105.
In the case of `CCCSc1nnc(CSc2nc3ccccc3s2)n1-c1ccccc1`, the z-score is reported as 0.0811.
`CCOC(=O)N1CCN(C(=O)Nc2ccc3nc(C)sc3c2)CC1` showed a z-score of 0.467.
`CCN(CC)CCC(=O)Nc1ccc2c(c1)N(C(=O)CN(CC)CC)c1ccccc1CC2` gave a z-score of -0.214.
In the case of `COC(=O)Nc1nnc(CC(=O)Nc2ccccc2C)s1`, the z-score is reported as 0.415.
`COc1cc(C)c(NC(=S)Nc2cccc(Cl)c2C)cc1OC` showed a z-score of -0.261.
For `N/C(Cc1ccc([N+](=O)[O-])cc1)=N\OC(=O)c1ccc([N+](=O)[O-])cc1`, the z-score was -0.153.
With `O=C(NN=C(Cc1ccccc1)Cc1ccccc1)c1ccc(F)cc1` the z-score was active: 4.71.
`CC(C)Sc1nc(O)c(Cc2ccccc2)c(=O)[nH]1` showed a z-score of -0.214.
With `O=C(O)COc1ccc(-c2nccc(-c3cccs3)n2)cc1` the z-score was 0.641.
Compound `COc1ccccc1N1CCN(c2ccc([N+](=O)[O-])cc2Cl)CC1` has a z-score of 0.0156.
Compound `O=c1cc(N2CCc3ccccc32)[nH]c(=O)n1Cc1ccc(F)cc1` has a z-score of -0.00953.
Work on `CC1(C)Nc2ccccc2C(=O)N1NS(=O)(=O)c1ccccc1` yielded a z-score of 0.16.
`O=c1c(-c2ccco2)[n+]([O-])c2ccccc2n1OCc1ccccc1F` showed a z-score of -0.377.
For `CCc1ccc(C(=O)CSc2nc3ccccc3c(=O)[nH]2)cc1`, the z-score was -0.108.
`O=C(NC1CCCCC1)C(c1cccs1)N(Cc1cccs1)C(=O)c1cccs1` (stereo not drawn) showed a z-score of 0.00854.
`CCN1C(=O)CSc2ccc(C(=O)NCc3ccc(OC)cc3)cc21` showed a z-score of 0.0166.
In the case of `CCCc1cc(Nc2c(C)n(C)n(-c3ccccc3)c2=O)n2c(nc3ccccc32)c1C#N`, the z-score is reported as -1.44.
Compound `COc1ccc(CCN(Cc2cccs2)S(=O)(=O)c2ccc(-n3cnnn3)c(OC)c2)cc1OC` has a z-score of 0.00123.

— PubChem BioAssay AID488969 (Vanderbilt High Throughput Screening Facility, 2010)
